According to PubChem BioAssay AID463173 (ICCB-Longwood Screening Facility, Harvard Medical School, 2010):
About 4,300 (8.3%) of roughly 52,000 compounds were called active. Rule as the data show it: active = survival mostly below about 52% (no sharp cut-off); inactive = mostly above about 56%. The list shows a part of the results.

Test system: DeltatarO mutant
Test: growth inhibition of S. aureus wild type versus tarO mutant, primary screen, teichoic acid synthesis inhibitors, RN4220, OD600 (AID 463173)
Settings: OD600, 18 h, hits give low values, screened at 18.75 µg/mL (by protocol)

| SMILES | survival |
| --- | --- |
| Cc1ccc2nc(CN3CCN(S(=O)(=O)c4ccc(F)cc4)CC3)oc2c1 | inactive: 72% |
| Cc1ccc(-c2nc3c(c(SCC(=O)Nc4cccc(C(=O)O)c4)n2)Cc2cccc(C)c2O3)cc1 | inactive: 67% |
| CCN(CC)CCNC(=O)c1ccc2c(=O)n3nc(Nc4ccccc4)sc3nc2c1 | inactive: 101% |
| CC1=C(C(=O)Nc2cccc(C(F)(F)F)c2)C2(CCN(C(C)C)CC2)OC1=O | inactive: 84% |
| Cc1cc2c(cc1S(=O)(=O)Nc1cccc(Cl)c1C)OCCN2C | inactive: 67% |
| COc1ccc(-c2nc3ccccc3o2)cc1NC(=O)c1ccc(-c2cccc(Cl)c2C)o1 | inactive: 58% |
| Cc1c(-c2nc(-c3ccc4c(c3)OCO4)no2)nnn1-c1cccc(C(F)(F)F)c1 | inactive: 83% |
| Cc1ccc(CNC(=O)C2CCCN(Cc3nc(-c4cccc(C)c4)oc3C)C2)cc1 (configuration not stated) | inactive: 41% |
| COc1cccc(NC(=O)C2CCN(c3nnc(-n4c(C)ccc4C)s3)CC2)c1 | inactive: 86% |
| COCCCNC(=O)CN1C(=O)CSc2ccc(S(=O)(=O)N3CCOCC3)cc21 | inactive: 122% |
| CCn1cc2nc(SCc3ccc(F)cc3)n(Cc3ccc(Cl)cc3)c(=O)c2n1 | inactive: 95% |
| CCCS(=O)(=O)N1CC(=O)N(c2ccc(Cl)cc2)C(C)(C(=O)NC2CCCC2)C1 (configuration not stated) | inactive: 91% |
| CC(=O)Nc1ccc(Nc2nnc(-c3ccc(C)c(S(N)(=O)=O)c3)c3ccccc23)cc1 | inactive: 186% |
| Cc1cc(C)cc(N(CC(=O)NCc2ccco2)C(=O)c2snc(C(N)=O)c2N)c1 | inactive: 93% |
| COc1ccc2c(c1)CC(C(=O)NCCN1CCN(c3cccc(C)c3C)CC1)CO2 (configuration not stated) | inactive: 76% |
| COc1ccc2c(c1)c1c(c(=O)n(Cc3ccccc3)c(=O)n1CC(=O)Nc1ccc(C)cc1C)n2C | active: -2% |
| CC(C)CCNC(=O)Nc1cc(C(=O)NCc2cccc(F)c2)ccc1N1CCCC1 | inactive: 76% |
| O=C(C1CCN(S(=O)(=O)Cc2ccccc2)CC1)N1CCN(c2cccc(Cl)c2)CC1 | inactive: 79% |
| O=C(Nc1nnc(S(=O)(=O)N2CCCCCC2)s1)c1ccccc1Br | active: 43% |
| Cn1c(=O)[nH]c(=O)c2c1nc1n2CCCN1c1ccccc1 | inactive: 77% |
| CSc1cccc(NC(=O)C2CCN(S(=O)(=O)c3ccc4[nH]c5c(c4c3)CCCCC5)CC2)c1 | inactive: 89% |
| Cc1ccc(NC(=O)C2CCCN(S(=O)(=O)c3c(C)n[nH]c3C)C2)cc1C (configuration not stated) | inactive: 129% |

| SMILES | survival |
| --- | --- |
| CCOC(=O)c1ccc(CN(Cc2ccc(C)cc2)S(=O)(=O)c2ccc(NC(C)=O)cc2)cc1 | inactive: 73% |
| Cc1[nH]c2ccc(Cl)cc2c(=O)c1CN1CCN(C)CC1 | inactive: 95% |
| CCOC(=O)/C(C#N)=C/N1CCCc2ccccc21 | inactive: 96% |
| Cc1ccc(OC(=O)CCC(=O)N2CCc3ccccc32)cc1 | inactive: 111% |
| Cc1ccc(NC(=O)c2oc3ccc(S(=O)(=O)N4CCC5(CC4)OCCO5)cc3c2C)c(C)c1 | inactive: 100% |
| COCCn1c(SCC(=O)Nc2ccc(C(F)(F)F)cc2)nc2c([nH]c3ccccc32)c1=O | inactive: 85% |
| O=C(NC(=S)NC1CCSC1=O)c1ccco1 (configuration not stated) | inactive: 82% |
| O=C(Nc1ccc(S(=O)(=O)N(Cc2ccccc2)c2ccccc2)cc1)c1ccc([N+](=O)[O-])cc1 | inactive: 71% |
| O=C(NCc1ccc2c(c1)CCN2C(=O)c1ccccc1)c1ccco1 | inactive: 80% |
| COc1ccc(CCN2C(=O)C3CC=C(C)CC3C2=O)cc1OC (configuration not stated) | inactive: 112% |
| COc1cccc(N2CCN(C(=O)c3cc4c(=O)n(Cc5ccco5)ccc4nc3C)CC2)c1 | inactive: 89% |
| O=C(NCc1ccccc1Cl)c1ccc(NC(=O)N2CCSc3ncccc32)cc1 | inactive: 80% |
| CCC1=C(c2ccc(C)cc2)S(=O)(=O)N=C1N1CCC(C(=O)NCc2ccccc2Cl)CC1 | inactive: 77% |
| CCOC(=O)c1cc(S(=O)(=O)N2CCN(c3ccc(F)cc3)CC2)[nH]n1 | inactive: 73% |
| CCCN(CCC)CCNC(=O)C1CCCN(S(=O)(=O)c2cccc3nsnc23)C1 (configuration not stated) | inactive: 96% |
| CCCCCOC(=O)c1ccc(OC(=O)c2sc3ncn(Cc4cccc(F)c4)c(=O)c3c2C)cc1 | inactive: 74% |
| Cc1ccc(C)c(N2CCN(CCCNC(=O)c3nnc(Cc4ccc(F)cc4Cl)o3)CC2)c1 | inactive: 54% |
| CCn1c(CCNC(=O)C2CCCO2)nnc1SC (configuration not stated) | inactive: 104% |
| NCCNC(=O)c1c(O)c2cccc3c2n(c1=O)CCC3 | inactive: 101% |
| Cc1ccccc1N(CC(=O)NC1CCCC1)C(=O)c1csnn1 | inactive: 93% |
| Cc1ccc(C)c(OC(=O)CSc2nnc(-c3ccc4c(c3)OCO4)o2)c1 | inactive: 84% |
| COC(=O)c1ccc(Cn2c(SCC(=O)N(C)c3ccccc3)nc3ccccc32)cc1 | inactive: 60% |

| SMILES | survival |
| --- | --- |
| CCOc1cc(C(=O)Nc2ccc(S(=O)(=O)Nc3cc(OC)nc(OC)n3)cc2)cc(OCC)c1OCC | inactive: 67% |
| CCOc1cc2[nH]c(=O)n(CCCC(=O)N3CCN(c4cccc(Cl)c4)CC3)c(=O)c2cc1OCC | inactive: 81% |
| Cc1nc(SCc2ccc(Cl)cc2)c(C#N)c(C)c1Cl | inactive: 46% |
| COc1ccc(OC)c(CNc2sc3c(c2C(=O)Nc2cc(OC)ccc2OC)CCCC3)c1 | inactive: 73% |
| C=CCn1c(-c2ccccc2)c[nH]c1=S | inactive: 76% |
| COc1ccc(OC)c(NC(=O)N2CCC(CN3CCCCC3)CC2)c1 | inactive: 75% |
| CC(C)Cn1cc(C(=O)N2CCN(c3cccc(Cl)c3)CC2)c2c3ccccc3n(C)c2c1=O | inactive: 59% |
| CCOC(=O)c1cnc2ccc(OCC)cc2c1Nc1cc(Cl)c(OC)cc1OC | active: 51% |
| CC(=O)N1CCCc2cc(S(=O)(=O)N3CCCC(C(=O)Nc4cccc(Cl)c4C)C3)ccc21 (configuration not stated) | inactive: 67% |
| COC(=O)C1=C(C)N(Cc2cccnc2)C(=O)C1 | inactive: 89% |
| CCn1c(SCC(=O)c2ccccc2)nnc1-c1ccco1 | inactive: 86% |
| O=C(Cn1cnc2nc3c(cc2c1=O)CCCC3)N1CCN(c2ccccc2)CC1 | inactive: 89% |
| Cc1cc(C)cc(NC(=O)Cn2c3ncccc3c(=O)n2-c2ccc(C)c(C)c2)c1 | inactive: 78% |
| CCC(NC(=O)c1ccccc1NC(=O)c1ccco1)C(=O)NC1CCCCC1 (configuration not stated) | inactive: 73% |
| O=C(NCc1ccccc1)c1ccc2c(c1)nc1n2CCCCC1 | inactive: 67% |
| CCc1ccc(NC(=O)Cn2c(=O)n(CC3CCCO3)c(=O)c3cc(OC)c(OC)cc32)cc1 (configuration not stated) | inactive: 98% |
| O=C(Cn1c(=O)c2cccn2c2ccc(F)cc21)N1CCN(c2ccccc2)CC1 | inactive: 84% |
| Cc1ccc(-c2cc(C(F)(F)F)c(C#N)c(SCC(=O)O)n2)cc1 | inactive: 66% |
| COc1ccc(NC(=O)Nc2ccccc2OCc2cc(=O)n3ccccc3n2)c(OC)c1 | inactive: 117% |
| Cc1ccccc1CNC(=O)C(=O)NCC(c1cccs1)S(=O)(=O)c1ccc(Cl)cc1 (configuration not stated) | inactive: 80% |
| O=C(CN1C(=O)C2CCCCN2c2ccc(C(=O)N3CCCC3)cc21)NCc1cccc(F)c1 (configuration not stated) | inactive: 66% |
| Cc1cccc(N2CCN(Cc3nnc(-c4ccc5c(c4)OCO5)o3)CC2)c1C | inactive: 83% |

| SMILES | survival |
| --- | --- |
| CCc1nn2c(=O)cc(COc3ccc(/C=C(\C#N)C(=O)Nc4ccc(C)cc4)cc3)nc2s1 | inactive: 91% |
| Cc1ccc(-c2c3c(=O)n(C)c(=O)n(C)c3cn2-c2cc(C)ccc2O)cc1 | inactive: 75% |
| Cc1ccc(-n2ncc3c(=O)n(CC(=O)N(C)C)cnc32)cc1 | inactive: 101% |
| COc1ccc(N2CCN(C3C(=O)c4ccccc4N3C(C)=O)CC2)cc1 (configuration not stated) | inactive: 98% |
| COc1cccc(NC(=O)Cn2c(=O)n(CC(=O)NCCc3ccccc3)c(=O)c3sccc32)c1 | active: 45% |
| COCCN1Cc2cccc(C(=O)Nc3ccc(Cl)cc3Cl)c2C1=O | inactive: 59% |
| CCN(CC)c1ccc(NC(=O)CN2C(=O)c3cccnc3Sc3ccccc32)c(C)c1 | active: -2% |
| CC(=O)N(c1nnc(-c2ccc(C)cc2)s1)C1CCCC1 | inactive: 98% |
| CC(=O)N1CCc2c(sc3c2c(=O)n(CCc2ccccc2)c(=O)n3Cc2cccc(C)c2)C1 | inactive: 98% |
| CC(=O)N1c2ccc(S(=O)(=O)N3CCN(c4cccc(Cl)c4)CC3)cc2CC1C (configuration not stated) | inactive: 115% |
| CC(C)NC(=O)Cn1nc(N2CCN(c3ccccc3)CC2)ccc1=O | inactive: 84% |
| COc1ccc2oc(-c3ccc(C)c(NC(=O)CSc4ccc(Cl)cc4)c3)nc2c1 | active: 51% |
| Cc1ccc(Cn2cc(S(=O)(=O)c3ccc(C)cc3)c(=O)c3cc(F)c(N4CCCC4)cc32)cc1 | inactive: 90% |
| Cc1ccc(CNC(=O)C2CCN(C(=O)c3cnn(-c4ccccc4)c3-n3cccc3)CC2)cc1 | inactive: 74% |
| CCOc1cccc(NC(=O)c2ccc(F)c(S(=O)(=O)N(CC)c3cccc(C)c3)c2)c1 | inactive: 86% |
| Cc1c(Cl)cccc1NC(=O)CSc1nc(=O)n(Cc2cccnc2)c2c1CCC2 | inactive: 100% |
| Cc1c(Cl)cccc1-n1ncc(C(=O)Nc2ccc(F)cc2F)c1C1CCN(C(=O)OC(C)(C)C)CC1 | inactive: 81% |
| Cc1cc(Cl)ccc1NS(=O)(=O)c1ccc2c(c1)CC(C)N2C(=O)C1CCC1 (configuration not stated) | inactive: 81% |
| O=C1CC(c2nc(-c3ccccc3)no2)CN1c1ccc2c(c1)OCCO2 (configuration not stated) | inactive: 93% |
| CCOc1ccc(S(=O)(=O)Nc2ccc(-c3ccc(OC)nn3)cc2)cc1 | inactive: 82% |
| CCC(Sc1nc2nccnc2c(=O)n1Cc1ccc(C)cc1)C(=O)NC1CCCCC1 (configuration not stated) | active: 39% |
